Assay results taken from patent publication US20250270274A1, “SUPER LONG-LASTING GLP1 OR GLP1/GIP ANALOGUE DRUG FOR TYPE-2 DIABETES AND OBESITY” (Serpentide Inc., priority 2024, published 2025).

B1: P99: SEQ ID NO: 23: P67-RKR-SP01-hIgG4Fc (protein)
chain: QVQLVESGGGLVQPGGSLRLSCAASGSVFSRNFMGWYRQAPGKQRELVAYITVDGGTRYADSVKGRFTISRDNAKNTVYLQMNSLKPEDTAVYYCNRAGTTPYAWGQGTLVTVSSGGGGSGGGGSGGGGSRKRHGEGTFTSDVSSYLEEQAAKEFIAWLVKGGGGGGGSGGGGSGGGGSA[human IgG4 Fc with S228P F234A L235A (EU numbers) not given here]
B2: P46: SEQ ID NO: 29-27: SP01-amG3, SP01 fused to the N-terminus of amG3 light chain (protein)
light: HGEGTFTSDVSSYLEEQAAKEFIAWLVKGGGGGGGSGGGGSGGGGSDVVMTQTPLSLPVSLGDQASISCRSSQSLVHSNGDTYLHWYLQKPGQSPKLLIYKVSNRFSGVPDRFSGSGSGTDFTLKISRVEAADLGVYFCSQSTHVPPFTFGGGTKLEIKRTVAAPSVFIFPPSDEQLKSGTASVVCLLNNFYPREAKVQWKVDNALQSGNSQESVTEQDSKDSTYSLSSTLTLSKADYEKHKVYACEVTHQGLSSPVTKSFNRGEC
heavy: QVQLQQPGAELVKPGASVKLSCRASGYTFTSNWMHWVKQRPRQGLEWIGEINPSNGRSNYNEKFKTKATLTVDKSSSTAYMQLSSLTSEDSAVYYCARFYYGTSWFAYWGQGTLVAVSAASTKGPSVFPLAPCSRSTSESTAALGCLVKDYFPEPVTVSWNSGALTSGVHTFPAVLQSSGLYSLSSVVTVPSSSLGTKTYTCNVDHKPSNTKVDKRV[human IgG4 Fc with S228P F234A L235A (EU numbers) not given here]
modifications: heavy chain of amG3 not cited
B3: P93: SEQ ID NO: 22: P67-RGER-SP01-hIgG4Fc (protein)
chain: QVQLVESGGGLVQPGGSLRLSCAASGSVFSRNFMGWYRQAPGKQRELVAYITVDGGTRYADSVKGRFTISRDNAKNTVYLQMNSLKPEDTAVYYCNRAGTTPYAWGQGTLVTVSSGGGGSGGGGSGGGGSRGERHGEGTFTSDVSSYLEEQAAKEFIAWLVKGGGGGGGSGGGGSGGGGSA[human IgG4 Fc with S228P F234A L235A (EU numbers) not given here]

What was measured:
Format in all cases: in vivo
[1] = Pharmacokinetic study of fusion proteins in C57BL mice after SC administration (plasma ELISA)
Description: The pharmacokinetic profiles in C57BL Mice (males with a body weight of approximately 25 g, Beijing Vital River Laboratory Animal Technology Co., Ltd.) were studied after subcutaneous (SC) administration of 30 nmol/kg of fusion proteins. Blood was drawn from the test subjects (6 mice per group) at various times at 6h, on Day1, 2, 4, 7, 10, and 14 after dosing. Plasma was collected from each sample, and analyzed by i): a nanobody-specific detection antibody (GenScript MonoRab™ Rabbit Anti-Camelid VHH CockTail, Cat #A02016), which will only detect the intact fusion proteins, or ii): an N-terminus specific ELISA which only detect active GLP-1 released (Novus Biologicals, Cat #NBP1-05180H).
For initial screening, all 9 SP01 nanobodies were fused to the N-terminus of SP01 via a 3×(G4S) linker without Xa factor sequences, and then further fused to the N-terminus of the hIgG4 Fc fragment via a 3×(G4S) linker. […]
Using a similar method mentioned in Example 5, the pharmacokinetic studies of the fusion protein P95 was carried out in C57BL mice with 100 and 300 nmol/kg dosing. The concentration of the intact fusion protein P95 in the collected plasma samples was detected by ELISA, and the results were shown in FIG. 2A and FIG. 2B.

[2] = tested on: C57BL mice; test: Intraperitoneal glucose tolerance test (IPGTT) after single SC injection; details: for glycemic lowering effect (IPGTT) / decrease in glucose level, duration (IPGTT): single SC 100 or 300 nmol/kg; for glycemic lowering effect (IPGTT): Day 1, 7 and 14; for decrease in glucose level, duration (IPGTT): up to Day 28; for hypoglycemic effect (IPGTT): single SC, 30, 100 or 300 nmol/kg per FIG. 4 legend
Description: The effect of the fusion proteins on glucose tolerance was determined in C57BL mice (Beijing Vital River Laboratory Animal Technology Co., Ltd.). Each group (6 mice per group) received a single subcutaneous injection of PBS vehicle control, dulaglutide (TRULICITY® brand) (Vetter Pharma-Fertigung GmbH & Co. […] Intraperitoneal glucose tolerance tests (IPGTT) were performed on Day 1, 7, 14, 21, up to 28 after 6 hours fasting with tail vein blood glucose measurements at 0, 15, 30, 60, and 120 minutes.

[3] = tested on: DIO mice; test: 28-day study in DIO mice: body weight, blood glucose, food intake; details: for weight loss: after 28 days; for blood glucose: chronic dosing, blood glucose after 6 hours fasting, twice weekly (FIG. 7A)
Description: To further characterize and understand the efficacy of the fusion proteins, body weight and metabolic parameters were measured throughout a 28-day study in DIO mice (Beijing Vital River Laboratory Animal Technology Co., Ltd.).
The effects of all fusion proteins on blood glucose reduction and food intake were determined in the DIO mice described above (FIG. 7A and FIG. 7B). All mice are bled after fasting for 6 hours to measure blood glucose twice weekly.

| Molecule | release of active GLP1 fusion protein in plasma ([1]; SC 100 or 300 nmol/kg (FIG. 1G, 1H)) | glycemic lowering effect (IPGTT) [2] | decrease in glucose level, duration (IPGTT) [2] | weight loss ([3]; 100 nmol/kg once weekly) | cumulative food intake ([3]; 100 nmol/kg once weekly, measured every two days (FIG. 7B)) | blood glucose [3] | hypoglycemic effect (IPGTT) ([2]; Day 1, 5) | hypoglycemic effect (IPGTT) ([2]; Day 10) | constant level of released active GLP1 fusion protein in plasma ([1]; SC 100 or 300 nmol/kg, N-terminus specific ELISA (FIG. 1E, 1F)) |
| --- | --- | --- | --- | --- | --- | --- | --- | --- | --- |
| B1 | rapidly release the active GLP1 fusion protein | very stable glycemic lowering effects | significant decrease in glucose level for up to 28 days | 20.7% | greatest reduction in cumulative food intake; also recorded: significant reduction of food intake | significant blood glucose control |  |  |  |
| B2 |  |  |  |  |  |  | showed hypoglycemic effect | completely lost its effect |  |
| B3 |  | very stable glycemic lowering effects | significant decrease in glucose level for up to 28 days | 12.2% and 12% |  | significant blood glucose control |  |  | about 2 ng/ml |

Several values for one entry are separate records, joined by “and”; a condition that tells them apart may be missing. Equal values may be shown once. Entries after “also recorded” stand apart in the source; their conditions may differ.
